# From PMC4336329 (PLoS ONE, 2015)
# The campaign covered roughly 310,000 compounds. About 2,200 (0.71%) showed an effect of 50% or more. The effect is printed as a negative number. The list shows a part of the results.
# Biological target: human ether-à-go-go-related gene (hERG) potassium channel (human, UniProt Q12809)
# Assay: primary screen, population patch clamp on CHO cells stably expressing hERG
# Chain of human ether-à-go-go-related gene (hERG) potassium channel (Q12809 whole entry, looked up): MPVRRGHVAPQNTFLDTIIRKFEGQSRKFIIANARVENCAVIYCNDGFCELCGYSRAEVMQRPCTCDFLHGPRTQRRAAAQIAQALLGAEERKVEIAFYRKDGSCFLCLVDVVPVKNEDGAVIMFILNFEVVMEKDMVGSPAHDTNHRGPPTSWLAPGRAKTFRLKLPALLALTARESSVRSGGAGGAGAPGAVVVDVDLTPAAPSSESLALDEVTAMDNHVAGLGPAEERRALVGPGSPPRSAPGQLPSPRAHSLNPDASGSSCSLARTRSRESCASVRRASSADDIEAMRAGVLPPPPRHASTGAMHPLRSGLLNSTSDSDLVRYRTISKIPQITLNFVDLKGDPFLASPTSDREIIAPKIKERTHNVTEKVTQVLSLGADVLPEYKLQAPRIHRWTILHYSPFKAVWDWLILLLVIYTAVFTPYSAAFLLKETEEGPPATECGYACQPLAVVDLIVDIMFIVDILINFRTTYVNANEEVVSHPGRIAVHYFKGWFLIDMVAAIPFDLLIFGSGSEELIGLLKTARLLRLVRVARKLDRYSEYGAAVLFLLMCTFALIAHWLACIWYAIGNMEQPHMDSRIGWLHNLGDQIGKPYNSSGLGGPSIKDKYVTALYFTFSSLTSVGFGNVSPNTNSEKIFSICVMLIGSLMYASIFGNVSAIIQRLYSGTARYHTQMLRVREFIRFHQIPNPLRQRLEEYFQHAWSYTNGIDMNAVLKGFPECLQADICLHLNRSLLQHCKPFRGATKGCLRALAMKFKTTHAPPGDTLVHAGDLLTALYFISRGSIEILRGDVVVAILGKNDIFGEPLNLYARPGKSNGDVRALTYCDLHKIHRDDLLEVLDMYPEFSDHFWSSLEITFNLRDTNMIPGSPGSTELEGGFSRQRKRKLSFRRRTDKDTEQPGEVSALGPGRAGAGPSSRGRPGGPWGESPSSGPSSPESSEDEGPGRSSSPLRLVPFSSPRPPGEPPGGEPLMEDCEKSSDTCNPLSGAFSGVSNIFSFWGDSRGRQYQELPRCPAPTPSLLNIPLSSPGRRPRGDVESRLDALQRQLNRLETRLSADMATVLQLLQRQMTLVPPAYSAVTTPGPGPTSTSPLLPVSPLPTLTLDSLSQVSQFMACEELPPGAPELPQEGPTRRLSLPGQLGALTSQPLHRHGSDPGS
row,Compound,"hERG current change (%, negative = inhibition) at 1uM"
1,O=C1[C@H](O)[C@@H](O)C(=O)N1Cc1ccccc1,12%
2,Cn1cccc1C(=O)C(=O)Nc1ccccc1C(F)(F)F,9.27%
3,COC(=O)C1=C(C)NC(=O)NC1c1ccc2ccccc2c1 (stereo not shown),11.8%
4,O=C(COc1ccc(F)cc1)N(CC1=CCS(=O)(=O)C1)c1ccccc1,2.17%
5,O=C(CSc1nc2ncc(Br)cc2[nH]1)Nc1ccc2c(c1)OCO2,22.4%
6,CCOC(=O)C1(Cc2ccccc2C(F)(F)F)CCN(C2CCN(C(C)C)CC2)CC1,7.19%
7,CCOC(=O)c1cc(-c2ccc(C)o2)n[nH]1,11.6%
8,COc1ccc(C(=O)OC(C)CN2CCN(C)CC2)cc1.Cl (stereo not shown),12.7%
9,COc1ccc(C(=O)NCCCc2nc3ccccc3n2Cc2ccccc2C)cc1OC,-4.12%
10,O=C(O)CC(Cc1ccccc1)C(=O)Nc1ccc([N+](=O)[O-])cc1 (stereo not shown),-0.798%
11,Cc1sc2ncnc(NCC3CCCO3)c2c1C.Cl (stereo not shown),5.91%
12,CC12CCC(C(=O)N(c3ccccc3Cl)C1=O)C2(C)C (stereo not shown),-7.03%
13,CCN(CC(=O)Nc1c(F)cccc1F)C(=O)/C=C/c1c(C)nn(-c2ccc(F)cc2)c1C,18.3%
14,CCN1C(=NCCCCO)N[C@@H](c2cccc(C(F)(F)F)c2)C(C(=O)OC)=C1C,15.7%
15,CC1=CN2CC(O)CN=C2C=C1.Cl (stereo not shown),-2.43%
16,CCOc1ccc(CCNC(=O)c2cc([N+](=O)[O-])ccc2N2CCOCC2)cc1OCC,-4.36%
17,COc1ccc(-n2c(=O)c3ccccc3n(Cc3cccc(C)c3)c2=O)cc1OC,6.87%
18,O=C(Nc1nc2c(Cl)cccc2s1)C1CC1,11.6%
19,Cn1nc(C(F)(F)F)c(-c2ccc(F)cc2)c1NC(=O)Nc1ccc(F)cc1,8.82%
20,CSc1ccccc1C(=O)NCC1CCCO1 (stereo not shown),-5.4%
21,COC(=O)CSc1nnc(-c2cnccn2)n1C,8.35%
22,O=C(CSc1nnnn1C1CCCC1)Nc1ccccc1F,3.31%
23,CCOc1ncccc1C(=O)OCC(=O)c1c(N)n(C)c(=O)n(C)c1=O,5.09%

row,Compound,"hERG current change (%, negative = inhibition) at 1uM"
1,Cc1cc(C)n(CCNC(=O)c2cc(COc3ccc4ncccc4c3)on2)n1,5.98%
2,COc1cc(/C=C/C(=O)OCc2cn3cc(Cl)ccc3n2)ccc1O,10.3%
3,CC1(C)CC(=O)C(C=NC2CCCCC2)=C(O)C1,1.05%
4,CCCN1C(=O)C(NC(C)=O)c2ccccc21 (stereo not shown),0.349%
5,CCCCCSc1nc(O)cc(=O)[nH]1,12.8%
6,O=C(Nc1ccc(Cl)cc1)ON=C1CCCC1,9.85%
7,CCNC(=S)N1CCN(S(=O)(=O)c2ccc(C)cc2)CC1,9.13%
8,O=C1c2ccccc2C(=O)C1Cc1cccc2ccccc12,-10.2%
9,O=C(/C=C/c1ccccc1)C1C(=O)c2ccccc2C1=O,2.28%
10,COc1ccc(N/N=C(\C#N)C(N)=O)cc1,8.96%
11,CCOc1cc(/C=N/NS(=O)(=O)c2ccccc2)ccc1OS(=O)(=O)c1ccc(C)cc1,9.42%
12,CCOC(=O)N1CCC(NC(=O)c2cccc3c2C(=O)N(CCOC)C3)CC1,13.8%
13,CCCOC(=O)N[C@@H]1C(=O)N2C(C(=O)OCCC)=C(C)CS[C@H]12,3.49%
14,O=C(N/N=C/c1c(O)n(-c2ccccc2Cl)c(=O)c2ccccc12)C1COc2ccccc2O1 (stereo not shown),14.1%
15,COc1ccc(CC(=O)Oc2ccc(C)cc2C)cc1,9.54%
16,Cc1c(C(=O)Nc2ccc3c(c2)OCCO3)sc2ncnc(N3CCCCC3C)c12 (stereo not shown),16.8%
17,CN1c2ccccc2C(=O)NC1c1ccc(Cl)cc1 (stereo not shown),8.1%
18,Cc1cc(NCC(c2ccccc2)c2ccccc2)n2ncnc2n1,-6.98%
19,Cc1ccc(-c2nc3ncccc3o2)cc1NC(=O)c1ccccc1,-0.137%
20,Cc1cccc(NC(=O)CC2C(=O)NCCN2C(=O)Nc2ccc(Cl)cc2)c1 (stereo not shown),5.27%
21,Cc1nn(-c2ccccc2C(F)(F)F)c(=O)c2noc(C)c12,13.3%
22,CCN(CC(=O)Nc1ccccc1C(=O)OC)S(=O)(=O)c1ccc(OC)cc1,-5.84%
23,CCOC(=O)N1CCN(CC(O)c2ccccc2)CC1.O=C(O)C(=O)O (stereo not shown),12.5%

row,Compound,"hERG current change (%, negative = inhibition) at 1uM"
1,O=C(c1ccc(S(=O)(=O)Nc2cccc(C(F)(F)F)c2)cc1)N1CCOCC1,9.08%
2,CCCCn1c(N)c(N(CC(C)C)C(=O)CN(C)Cc2cccc(OC)c2)c(=O)[nH]c1=O,2.45%
3,Nc1ccccc1Sc1cc(Cl)nnc1Cl,3.55%
4,Cn1c(Cc2ccccc2)nnc1SCC(=O)Nc1ccc2c(c1)OCCO2,-8.79%
5,Cc1ccc(S(=O)(=O)N(C)CC(=O)O/N=C(\N)c2ccccn2)cc1,10.5%
6,CS(=O)(=O)N(CC(=O)NCc1ccc2c(c1)OCO2)C1CCCCC1,3.44%
7,Cc1cc(NC(=O)c2ccc(C)c([N+](=O)[O-])c2)no1,15.8%
8,Cc1cccc(NC(=S)N(C)C2(c3ccccc3Cl)CCCCC2=O)c1 (stereo not shown),4.38%
9,COc1ccc(C2CC(c3ccc(Cl)c(Cl)c3)Nc3nc(N)nn32)cc1 (stereo not shown),-3.36%
10,Cc1ccc(-c2cc(=O)[nH]c(NCc3ccccc3)n2)cc1,14.9%
11,COCCCn1c(SCC(=O)Nc2ccc(NC(C)=O)cc2)nc2sc3c(c2c1=O)CCC3,18.9%
12,CCCn1c(CCC(=O)O)nc2cc(S(=O)(=O)N(CC)CC)ccc21,0.496%
13,N=C1/C(=C\c2ccc(-c3cc(Cl)cc(Cl)c3)o2)C(=O)N=C2SC=C(c3ccccc3)N12,-4.59%
14,CCOC(=O)c1c[nH]c2c(C)cc(C)cc2c1=O,12.8%
15,CCOC(=O)C1=C(C)NC(=O)C1(NC(=O)c1cccnc1)C(F)(F)F (stereo not shown),5.63%
16,Cc1nn(C)cc1-c1csc(N)n1,9.31%
17,Cc1nn(C)cc1C(C(=O)NC1CCCCC1)N(C(=O)Cc1cccs1)c1ccc(F)cc1 (stereo not shown),5.81%
18,CC(C)CCNC(=O)c1cnn2c(C(F)(F)F)cc(-c3ccco3)nc12,6.03%
19,Cc1ccc(-n2cccc2/C=C2/C(=N)N3C(=NC2=O)SN=C3S(C)(=O)=O)cc1Cl,11.1%
20,Cn1nc(-c2ccccc2)c2cc([N+](=O)[O-])ccc21,13.1%
21,CC1=C(C(=O)Nc2ccc(CC(=O)NCc3ccccc3C)cc2)SCCO1,5.66%
22,O=C(CNC(=O)c1ccco1)NCCCc1ccccc1,7.92%
23,CCC(C)n1c(OC)nc2c1c(=O)n(C)c(=O)n2C (stereo not shown),13.4%

row,Compound,"hERG current change (%, negative = inhibition) at 1uM"
1,Cc1ccc2nc(NC(=O)c3ccco3)sc2c1,11.7%
2,CC1CC(C)(C)n2c(O)c(N=NC(N)=S)c3cccc1c32 (stereo not shown),22%
3,CCc1nnc(NC(=O)Nc2ccc(OC)cc2)s1,10.7%
4,CCCCCOC(=O)CSc1n[nH]c(=O)[nH]c1=O,-2.68%
5,COc1ccc(S(=O)(=O)NCC(=O)N(CC(=O)NCc2ccco2)Cc2ccccc2)cc1,2.88%
6,CCc1nn(C(C)C(=O)Nc2cccc(C)c2C)c(=O)c2cc3occc3n12 (stereo not shown),8.38%
7,OCCNc1c2ccccc2nc2ccccc12,-3.35%
8,CCN1c2nc3c(C)cccn3c(=O)c2CC2(C(=O)N(C)C(=O)N(C)C2=O)C1C (stereo not shown),5.07%
9,CCOc1ccc(NC(=S)NNC(=S)Nc2cccc(C(F)(F)F)c2)cc1,14.5%
10,COc1ccc(CC(=O)N2CCOCC2)cc1OC,5.67%
11,COC(=O)C1=C(C)N(c2ccc(Cl)cc2)/C(=C/c2cccs2)C1=O,10.6%
12,Cc1cc(=O)[nH]c(SCC(=O)NCC2CCCCC2)c1C#N,16%
13,COCCNC(=O)CN1C(=O)c2cccc3cccc1c23,17.3%
14,CCOC(=O)CC(NC(=O)C1c2ccccc2Oc2ccccc21)c1ccc(C)cc1 (stereo not shown),16.2%
15,COc1ccc(/C(O)=C2/C(=O)C(=O)N(Cc3ccco3)C2c2cccs2)cc1 (stereo not shown),19.5%
16,Cc1c(C(=O)NCCCN2CCOCC2)oc2ccc(S(=O)(=O)N3CCOCC3)cc12,20.7%
17,CCOC(=O)C1=C(C)N=c2s/c(=C\c3ccc(OC(C)=O)c(OCC)c3)c(=O)n2C1/C=C/c1ccccc1 (stereo not shown),13.6%
18,CC1=NN(C(N)=S)C(=O)C1N=Nc1ccc([N+](=O)[O-])cc1 (stereo not shown),5.26%
19,C(=N\Nc1nc2ccccc2[nH]1)/C1CCCCC1,-6.22%
20,NC(=O)CSc1nc2c(sc3ccccc32)c(=O)n1CCCC(=O)NCC1CCCO1 (stereo not shown),8.31%
21,COc1cc(/C=C/C(=O)O)cc(S(=O)(=O)Nc2cccc(S(=O)(=O)N3CCOCC3)c2)c1OC,9.38%
22,COc1cccc(C(c2nnnn2Cc2ccc(F)cc2)N2CCC(C(N)=O)CC2)c1OC (stereo not shown),-6.74%
